Results as given in the supplement of paper PMC10126150.
Values marked as one replicate rest on one cluster of the flow cell; about a third of the high ones do not repeat.

What follows are sequences tested on ATP (assay: switch fluorescence ratio, 500 uM ATP over buffer (Cy3 cluster intensity, sum of 5 cycles each) (fold (ratio)); higher = stronger signal-on switching upon ATP binding; sequences stand for … in TCGTCGGCAGCGTCAGATGTGTATAAGAGACAGTTTTTTTTTTTTTTTTTTTTTTTTT…TC). Conditions: aptamer strand: ATP DNA aptamer (quencher-CACCTGGGGGAGTATTGCGGAGGAAGG + anchor), 100 nM annealed; ATP concentration: 500 uM; one replicate.
Outline: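 Switching-strand clusters labelled with Cy3 on a modified Illumina MiSeq flow-cell were annealed to 100 nM quencher-labelled ATP aptamer, imaged in selection buffer, and re-imaged after 15 min with 500 uM ATP at 22 °C. This was done over five cycles with NaOH stripping and re-annealing in between. The fluorescence ratio is summed target-cycle over summed buffer-cycle Cy3 intensity per cluster, averaged per switch-domain sequence, excluding clusters outside 100-1000 RFU.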
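Also: ATP exposure 15 min at 22 °C before imaging.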

Sequence	switch fluorescence ratio
GCCTCAGTAG	1.08
GTCGACGGGT	0.951
CGATAAGAAT	1.03
CATGAATTGC	1.04
TCGTCATTTT	1.15
ACAACGATTC	1.08
CCAATGAGAA	0.996
CAGTCAAGTA	1.05
AATTCAGCCG	1.12
GAGGGTGTC	0.975
CAGGGTACTC	1.01
CGCAACGACT	1.81
CGAGACTCAT	1.02
AGAAGGCACT	0.972
GAAGCCAAAG	0.996
ACAATGAGGC	1.04
GGGACTCTGG	0.943
CATGCGCATT	1.67
GCACGGATTA	1.12
GTTGTCGCCT	1.05
TTTTGTTCCG	1.02
TTTTCCCCA	1.3
TTTTCATATG	1.02

Sequence	switch fluorescence ratio
AATTATATCT	1.08
TTGTCTAAGT	1.02
CTTAGATAG	0.999
TTAGGGCGG	0.966
CATTATACTG	0.987
ATCCAGGGCT	1.01
GGCTTTTCTA	0.942
TGGGGGAA	0.992
TAAACCCTCT	1.33
GTTGGTCAGC	0.982
AGTCCGGCTT	1.06
ACTTGCACCG	1.25
TTGAATATAC	2.35
CAACGCAGAT	2.39
ATAGTAATGA	0.977
TCATTTCGAG	1.75
TCGGATCTAG	1.01
CAACGGGGA	0.966
ATTGAGTACT	1
TGTCCTTAAT	1.01
ATATTGCTGT	1.02
TTCGCTTGGA	0.987
TCTTGCTGTA	0.966

Sequence	switch fluorescence ratio
GTCATTGGG	0.959
AACAATAAGA	1.02
GTCCTTGCTT	1.02
TGCATCAGTG	0.968
ATCAAAATAG	1.08
GCTGCAGGAC	2.79
CACGATTATC	1.06
GTGCGTAGTA	1
ACTAATTGGG	0.993
TATCGCGTTG	1.02
ATAGAAACGG	1.11
GGACTAGTAT	0.938
CGCTGTTTGC	1.08
GTGGGCCATT	0.921
CACTAGGGT	0.996
TCTCCAGTG	2.36
CGCCCCAGCT	1.07
GGATTCATGC	0.98
AACACCTAAG	1.05
ACATGGTGTA	1.02
AGGCATAGAA	0.99
GAATGGATTA	1.01
TCATAAACCT	2.4

Sequence	switch fluorescence ratio
GTAAAAAGTA	0.992
ATCGCGAATA	1.07
GATCAGTCAA	1.01
GGAAGAAGTC	1.5
GTAGGGATAC	3.32
AGCGGCCACA	1.02
TAGTCATTCT	0.997
TGATTGTAGG	1.04
ATGCTTGGTA	1.03
GGCGTCTTTT	1
GGCCCTTTGA	0.973
TATCCCTAGG	1.29
CGCGTGGTCC	1.03
TTCACTTCT	1.02
CTTTCCGGAA	1.92
ACAGTACCCC	1.29
CCGGGGGGTC	0.997
CTCTAGGTTC	1.06
TTATTGACAG	1.04
AGTCAATTAT	1.05
TGTCTATGCT	1
GGGGGTTCTG	0.941
CTGTGTGGGT	0.985

Sequence	switch fluorescence ratio
AATATGTGAC	1.05
GGCTTCTTTT	0.972
CACCGAGGGG	1.01
CGGGCCAGA	0.987
GCAGTCAGCA	1.03
GGGTGAGGAC	0.989
GGATCTGATG	1.01
GTTTAAAATA	1.02
CTCTGTGGGT	0.966
ACTAGCCGGT	1
GCTACATTGT	0.961
GCCTGGTCTC	1.02
CTTACCGGCG	0.94
AAAGATAAAT	0.992
CGTACTGCGT	0.941
ACCCTCAGCT	1.28
TTTCGAAACC	1.06
TATACGTGAA	1.14
CTCAGCAAAC	1.98
TATGAATTGA	1.02
GACCGGGAAG	1.04
ATAAGAGGCT	0.974
ACGTCAGGAG	1.05

Sequence	switch fluorescence ratio
GAAATGGTTT	1.02
GTGGGTTACC	0.997
ACTGGAACCC	1.12
ATTTGACACT	1.2
ACCATCCGTG	1.08
GTCTTAGATG	1.05
TCAAGTTAAA	1.04
AGCGAGGTTT	0.928
TTTTCTGGTC	1.07
TGGAGGACTC	0.995
TTACTCTGGT	1.1
GGGCATGGCA	1.01
AACATCTTAA	0.996
CGGCAGACCA	0.956
CAAGTGGGCA	0.966
GTTGATCGA	0.998
AGCGACTTGG	0.961
TTCAATAGAG	0.987
TCATTGTCG	1.01
CAATCTGTTC	1
ATTCGATTTG	0.973
TAAAAAACG	1.1
TTATCATCGA	1.01

Sequence	switch fluorescence ratio
CGGAATCCAC	1.27
CGAGTTGTCG	1.05
AGTGATGTGC	0.983
TTCTATGGGG	1
TAGCGGTGCT	1.08
ACGGGATTCA	1.09
GACATCTCCG	1.07
CTGGATGGTA	0.976
GCGTACCAAC	1.1
ACATAATAG	1.09
CCTTAGTTTC	1.11
ACGGGAGGGC	1.04
GGAACGAATT	0.984
AACTTGTCCG	0.98
CTCGACTGTT	0.95
TATTATATAT	1
TGGATCGTAA	1.03
AACTAGTGAC	1.04
ATGGAGTAAT	1.04
